# Test results as given in the supplement of paper PMC6531468.
# Some of the results follow. Read counts after selection give these values, which scatter widely. Each score is taken over the longer molecules that contain the sequence shown.
# Tested on: IMP3 KH1-4
# Experiment: 6-mer SELEX enrichment z-score vs GST control; IMP3 is the RNA-binding protein IGF2BP3; higher = more enriched by binding
# Details: construct: KH1-4 (164-579); SELEX round: R4
# Method: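 SELEX-seq with GST-tagged IMP3 KH1-4 (Pro164-Lys579) and an N40 RNA pool, round 4. 6-mer z-score of sequence-tag enrichment normalised to the corresponding GST SELEX round; RNA k-mers written as DNA (T for U).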
# Sequence of IMP3 KH1-4 (chain, as listed by the source): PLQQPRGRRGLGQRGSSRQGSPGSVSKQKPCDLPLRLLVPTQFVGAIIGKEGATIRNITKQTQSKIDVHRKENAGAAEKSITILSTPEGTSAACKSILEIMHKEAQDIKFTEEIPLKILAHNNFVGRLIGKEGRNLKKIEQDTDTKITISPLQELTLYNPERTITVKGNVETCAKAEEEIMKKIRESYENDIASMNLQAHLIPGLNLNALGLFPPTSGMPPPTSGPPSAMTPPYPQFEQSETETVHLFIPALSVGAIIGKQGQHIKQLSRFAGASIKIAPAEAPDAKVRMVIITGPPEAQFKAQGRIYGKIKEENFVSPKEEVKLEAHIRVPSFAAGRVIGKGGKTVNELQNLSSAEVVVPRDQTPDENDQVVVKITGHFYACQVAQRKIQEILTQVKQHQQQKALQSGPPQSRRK
row,Sequence,6-mer SELEX enrichment z-score
1,AGACTT,-0.158
2,CGTTTT,-0.352
3,AGTTAC,0.286
4,ATGTTA,0.509
5,ACCGCG,-1.15
6,CACGTG,-0.075
7,ATTGAG,-1.03
8,ATCTAC,0.329
9,GGCACT,0.737
10,TGAAAA,-0.322
11,CAGAAT,0.797
12,TCGATC,-0.564
13,GAGATC,-0.235
14,TGATAG,0.611
15,AGAGGA,1.43
16,CTGTCT,-0.045
17,AGGTTT,0.053
18,CCCTAA,-1.13
19,CTGGGT,-0.171
20,GTTTGA,-0.271

row,Sequence,6-mer SELEX enrichment z-score
1,ACTGTC,0.242
2,GAGGCT,0.28
3,CACTTG,-0.224
4,TACGAA,-0.069
5,ACACTC,-0.182
6,TGACAA,0.489
7,AAGTGG,0.398
8,AAAAGA,-0.498
9,TAGCAT,0.262
10,GTACAT,0.384
11,AGAAGG,0.571
12,GCGCTA,-0.413
13,CGTAGA,-2.15
14,ATCGCG,-0.734
15,GGCTTG,0.066
16,TCTGGG,-0.274
17,GCGCCC,-0.828
18,CTCAGG,-0.414
19,TATAGA,1.1
20,TCACCG,0.017

# Tested on: IMP3 RRM1-2
# Experiment: as above
# Details: construct: RRM1-2 (1-163); SELEX round: R2
# Method: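 SELEX-seq with GST-tagged IMP3 RRM1-2 (Met1-Asn163) and an N40 RNA pool, round 2. 6-mer enrichment z-score normalised to GST SELEX. RNA written as DNA (T = U).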
# Sequence of IMP3 RRM1-2 (chain, as listed by the source): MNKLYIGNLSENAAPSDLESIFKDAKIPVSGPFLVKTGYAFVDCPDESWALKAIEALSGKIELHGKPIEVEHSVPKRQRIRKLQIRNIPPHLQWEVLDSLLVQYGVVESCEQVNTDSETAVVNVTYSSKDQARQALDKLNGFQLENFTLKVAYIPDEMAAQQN
row,Sequence,6-mer SELEX enrichment z-score
1,AGACTT,-0.331
2,CGTTTT,0.204
3,AGTTAC,0.209
4,ATGTTA,0.072
5,ACCGCG,-0.575
6,CACGTG,0.06
7,ATTGAG,-0.298
8,ATCTAC,0.231
9,GGCACT,0.581
10,TGAAAA,-2.23
11,CAGAAT,-0.012
12,TCGATC,0.364
13,GAGATC,-0.287
14,TGATAG,-0.203
15,AGAGGA,-0.636
16,CTGTCT,0.297
17,AGGTTT,0.321
18,CCCTAA,-0.606
19,CTGGGT,0.332
20,GTTTGA,-0.053

row,Sequence,6-mer SELEX enrichment z-score
1,ACTGTC,0.001
2,GAGGCT,0.18
3,CACTTG,0.531
4,TACGAA,-1.01
5,ACACTC,1.38
6,TGACAA,-0.739
7,AAGTGG,-0.265
8,AAAAGA,-3.12
9,TAGCAT,0.423
10,GTACAT,0.354
11,AGAAGG,-0.52
12,GCGCTA,0.092
13,CGTAGA,-0.6
14,ATCGCG,0.053
15,GGCTTG,0.438
16,TCTGGG,0.459
17,GCGCCC,-0.355
18,CTCAGG,0.455
19,TATAGA,-0.385
20,TCACCG,0.286

# Target: IMP3 full-length (UniProt O00425)
# Experiment: as above
# Details: construct: FL IMP3 (1-579); SELEX round: R4
# Method: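 SELEX-seq with GST-tagged full-length IMP3 and an N40 RNA pool, round 4. Each 6-mer is scored as an enrichment z-score of sequence tags containing it, normalised to the matching GST SELEX round. RNA written as DNA (T = U).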
# Sequence of UniProt O00425 (O00425 whole entry): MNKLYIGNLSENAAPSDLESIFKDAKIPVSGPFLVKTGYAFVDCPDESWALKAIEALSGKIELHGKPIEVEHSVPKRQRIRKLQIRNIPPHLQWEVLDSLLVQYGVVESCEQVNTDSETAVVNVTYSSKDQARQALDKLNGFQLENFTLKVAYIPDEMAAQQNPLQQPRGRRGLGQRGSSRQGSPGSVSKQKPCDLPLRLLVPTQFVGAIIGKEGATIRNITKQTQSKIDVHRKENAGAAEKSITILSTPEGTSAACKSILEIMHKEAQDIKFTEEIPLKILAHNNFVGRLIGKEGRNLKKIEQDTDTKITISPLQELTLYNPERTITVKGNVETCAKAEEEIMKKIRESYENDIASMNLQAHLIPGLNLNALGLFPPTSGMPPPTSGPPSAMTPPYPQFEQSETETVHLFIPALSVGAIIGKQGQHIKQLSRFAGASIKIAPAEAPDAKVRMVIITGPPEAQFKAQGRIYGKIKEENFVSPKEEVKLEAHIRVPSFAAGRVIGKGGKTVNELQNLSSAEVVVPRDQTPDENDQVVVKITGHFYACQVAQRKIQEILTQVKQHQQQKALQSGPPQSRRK
row,Sequence,6-mer SELEX enrichment z-score
1,AGACTT,-0.598
2,CGTTTT,-0.202
3,AGTTAC,-0.023
4,ATGTTA,-0.117
5,ACCGCG,-0.397
6,CACGTG,0.331
7,ATTGAG,-0.832
8,ATCTAC,0.015
9,GGCACT,1.37
10,TGAAAA,-1.93
11,CAGAAT,0.46
12,TCGATC,0.036
13,GAGATC,-0.16
14,TGATAG,-0.142
15,AGAGGA,0.156
16,CTGTCT,0.111
17,AGGTTT,0.048
18,CCCTAA,-1.49
19,CTGGGT,0.104
20,GTTTGA,-0.439

row,Sequence,6-mer SELEX enrichment z-score
1,ACTGTC,0.035
2,GAGGCT,0.404
3,CACTTG,0.162
4,TACGAA,-0.78
5,ACACTC,0.239
6,TGACAA,-0.207
7,AAGTGG,0.02
8,AAAAGA,-2.42
9,TAGCAT,0.409
10,GTACAT,0.671
11,AGAAGG,-0.037
12,GCGCTA,-0.019
13,CGTAGA,-1.13
14,ATCGCG,-0.014
15,GGCTTG,0.272
16,TCTGGG,0.124
17,GCGCCC,0.117
18,CTCAGG,0.379
19,TATAGA,0.067
20,TCACCG,0.652

# Tested on: IMP3 KH1-2
# Experiment: as above
# Details: construct: KH1-2 (164-376); SELEX round: R4
# Method: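 SELEX-seq with GST-tagged IMP3 KH1-2 (Pro164-Phe376) and an N40 RNA pool, round 4 (stringent 300/600 mM KCl washes). 6-mer z-score of sequence-tag enrichment normalised to the corresponding GST SELEX round; RNA k-mers written as DNA (T for U).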
# Sequence of IMP3 KH1-2 (chain, as listed by the source): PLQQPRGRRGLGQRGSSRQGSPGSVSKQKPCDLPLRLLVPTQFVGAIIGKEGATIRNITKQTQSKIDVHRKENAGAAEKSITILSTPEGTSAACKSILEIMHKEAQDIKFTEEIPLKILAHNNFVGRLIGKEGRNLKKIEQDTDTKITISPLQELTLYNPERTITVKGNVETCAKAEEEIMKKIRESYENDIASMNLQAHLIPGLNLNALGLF
row,Sequence,6-mer SELEX enrichment z-score
1,AGACTT,-0.098
2,CGTTTT,-0.256
3,AGTTAC,0.041
4,ATGTTA,0.184
5,ACCGCG,-0.984
6,CACGTG,-0.231
7,ATTGAG,-0.995
8,ATCTAC,0.196
9,GGCACT,0.474
10,TGAAAA,-0.433
11,CAGAAT,0.726
12,TCGATC,-0.525
13,GAGATC,-0.215
14,TGATAG,0.344
15,AGAGGA,1.18
16,CTGTCT,-0.014
17,AGGTTT,0.015
18,CCCTAA,-1.1
19,CTGGGT,-0.045
20,GTTTGA,-0.337

row,Sequence,6-mer SELEX enrichment z-score
1,ACTGTC,0.127
2,GAGGCT,0.287
3,CACTTG,-0.312
4,TACGAA,-0.122
5,ACACTC,0.022
6,TGACAA,0.308
7,AAGTGG,0.268
8,AAAAGA,-0.666
9,TAGCAT,0.163
10,GTACAT,0.235
11,AGAAGG,0.546
12,GCGCTA,-0.355
13,CGTAGA,-2.01
14,ATCGCG,-0.685
15,GGCTTG,0.106
16,TCTGGG,-0.111
17,GCGCCC,-0.506
18,CTCAGG,-0.259
19,TATAGA,0.913
20,TCACCG,0.134

# Tested on: IMP3 KH3-4
# Experiment: as above
# Details: construct: KH3-4 (377-579); SELEX round: R4
# Method: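 SELEX-seq with GST-tagged IMP3 KH3-4 (Pro377-Lys579) and an N40 RNA pool, round 4. 6-mer z-score of sequence-tag enrichment normalised to the corresponding GST SELEX round; RNA k-mers written as DNA (T for U).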
# Sequence of IMP3 KH3-4 (chain, as listed by the source): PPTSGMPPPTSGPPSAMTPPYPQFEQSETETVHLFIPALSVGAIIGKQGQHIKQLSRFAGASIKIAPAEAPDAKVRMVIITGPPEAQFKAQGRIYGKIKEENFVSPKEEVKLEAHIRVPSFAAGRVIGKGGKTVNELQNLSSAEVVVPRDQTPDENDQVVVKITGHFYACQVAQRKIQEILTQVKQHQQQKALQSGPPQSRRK
row,Sequence,6-mer SELEX enrichment z-score
1,AGACTT,-0.022
2,CGTTTT,-0.157
3,AGTTAC,-0.017
4,ATGTTA,0.599
5,ACCGCG,-1.42
6,CACGTG,-0.313
7,ATTGAG,-0.623
8,ATCTAC,0.051
9,GGCACT,0.699
10,TGAAAA,0.767
11,CAGAAT,0.916
12,TCGATC,-0.543
13,GAGATC,-0.061
14,TGATAG,0.81
15,AGAGGA,1.42
16,CTGTCT,-0.037
17,AGGTTT,0.345
18,CCCTAA,-1.45
19,CTGGGT,0.021
20,GTTTGA,-0.105

row,Sequence,6-mer SELEX enrichment z-score
1,ACTGTC,-0.15
2,GAGGCT,0.457
3,CACTTG,-0.471
4,TACGAA,0.158
5,ACACTC,-0.769
6,TGACAA,0.454
7,AAGTGG,0.545
8,AAAAGA,0.963
9,TAGCAT,0.202
10,GTACAT,0.222
11,AGAAGG,0.786
12,GCGCTA,-0.206
13,CGTAGA,-1.96
14,ATCGCG,-0.698
15,GGCTTG,0.276
16,TCTGGG,-0.051
17,GCGCCC,-1.13
18,CTCAGG,-0.359
19,TATAGA,1.73
20,TCACCG,-0.612
